Counter-ions that a name gives are not always drawn. This is one part of the list. Many values rest on one well or one pass, so single values are uncertain.
tested on: Escherichia coli W3110; assay: planktonic growth (OD600) relative to untreated control; higher = more growth; conditions: 10 µM; 20-24 h; 30 °C; TB
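Note: stationary (unshaken) cultures in 96-well plates, started at OD600 0.05 from mid-exponential cells, with compounds supplied from DMSO stocks.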

Structure (SMILES)	planktonic growth [%]
CC(=O)OCC(=O)[C@@]1(O)CC[C@H]2[C@@H]3CCC4=CC(=O)CC[C@]4(C)[C@@]3(F)[C@@H](O)C[C@@]21C [Fludrocortisone acetate]	110
CCCCN(CCCC)CCCOC(=O)c1ccc(N)cc1 [Butacaine]	99
COC(=O)Nc1nc2cc(C(=O)c3cccs3)ccc2[nH]1 [Nocodazole]	94
Cc1ccc(C(=O)c2ccc(CC(=O)O)n2C)cc1 [Tolmetin sodium salt dihydrate]	90
CC[N+](C)(CC)CCOC(=O)C1c2ccccc2Oc2ccccc21 [Methantheline bromide]	93
CC(=O)OCC(=O)[C@@]1(O)CC[C@H]2[C@@H]3CCC4=CC(=O)CC[C@]4(C)[C@H]3[C@@H](O)C[C@@]21C [Cortisol acetate]	92
Cc1ncc(C[n+]2csc(CCO)c2C)c(N)n1 [Thiamine hydrochloride]	99
CCN[C@H]1CN(CCCOC)S(=O)(=O)c2sc(S(N)(=O)=O)cc21 [Brinzolamide]	98
NS(=O)(=O)c1cc(C2(O)NC(=O)c3ccccc32)ccc1Cl (centres undefined) [Chlorthalidone]	93
C=CC(N)CCC(=O)O (centres undefined) [Vigabatrin hydrochloride]	99
CC[N+](C)(C)c1cccc(O)c1 [Edrophonium chloride]	109
NCCc1c[nH]cn1 [Histamine dihydrochloride]	95
OC(Cn1cncn1)(Cn1cncn1)c1ccc(F)cc1F [Fluconazole]	100
CCCOc1cc(N)ccc1C(=O)OCCN(CC)CC [Propoxycaine hydrochloride]	95
Cc1cn[nH]c1 [Fomepizole]	101
C[C@H]1O[C@H](O[C@H]2[C@H](O)[C@@H](O)[C@@H](O[C@H]3[C@H](O)[C@@H](O)C(O)O[C@@H]3CO)O[C@@H]2CO)[C@H](O)[C@@H](O)[C@@H]1N[C@H]1C=C(CO)[C@@H](O)[C@H](O)[C@H]1O (some centres undefined) [Acarbose]	99
CC(C)(C)NC[C@@H](O)COc1cccc2c1CCCC2=O [(+) -Levobunolol hydrochloride]	92
CO[C@H]1/C=C/O[C@@]2(C)Oc3c(C)c(O)c4c(O)c(c(/C=N/N5CCN(C6CCCC6)CC5)c(O)c4c3C2=O)NC(=O)/C(C)=C\C=C\[C@H](C)[C@H](O)[C@@H](C)[C@@H](O)[C@@H](C)[C@H](OC(C)=O)[C@@H]1C [Rifapentine]	9
N=C(N)NC(=N)NCCc1ccccc1 [Phenformin hydrochloride]	96
CN1CCC(=C2c3ccccc3C=Cc3ccccc32)CC1 [Cyproheptadine hydrochloride]	26
CC(Cc1cccc(C(F)(F)F)c1)NCCOC(=O)c1ccccc1 (centres undefined) [Benfluorex]	108
CC(=O)S[C@@H]1CC2=CC(=O)CC[C@]2(C)[C@H]2CC[C@@]3(C)[C@@H](CC[C@@]34CCC(=O)O4)[C@H]12 [Spironolactone]	101
CCCc1cc(C(N)=S)ccn1 [Prothionamide]	92
NNCCc1ccccc1 [Phenelzine sulfate]	106
Clc1ccc(CCC(Cn2ccnc2)Sc2c(Cl)cccc2Cl)cc1 (centres undefined) [Butoconazole nitrate]	69

Structure (SMILES)	planktonic growth [%]
N#Cc1ccc(C(c2ccc(C#N)cc2)n2cncn2)cc1 [Letrozole]	91
C[N+]1(C)CCC(OC(=O)C(O)(c2ccccc2)C2CCCC2)C1 (centres undefined) [Glycopyrrolate]	97
N=C(NCCCCCCNC(=N)NC(=N)Nc1ccc(Cl)cc1)NC(=N)Nc1ccc(Cl)cc1 [Chlorhexidine]	18
NCc1ccccc1CC(=O)N[C@@H]1C(=O)N2C(C(=O)O)=C(CSc3nnnn3CC(=O)O)CS[C@H]12 [Ceforanide]	4
CN1CCN(C2=Nc3ccccc3Oc3ccc(Cl)cc32)CC1 [Loxapine succinate]	102
O=C(O)c1cn(-c2ccc(F)cc2)c2cc(N3CCNCC3)c(F)cc2c1=O [Sarafloxacin]	24
C[C@@H]1C[C@H]2[C@@H]3C[C@H](F)C4=CC(=O)C=C[C@]4(C)[C@@]3(F)[C@@H](O)C[C@]2(C)[C@@]1(O)C(=O)CO [Flumethasone]	95
O=C(O)Cc1ccc(-c2ccccc2)cc1 [Felbinac]	74
COc1cc(C(=O)OCCCN2CCCN(CCCOC(=O)c3cc(OC)c(OC)c(OC)c3)CC2)cc(OC)c1OC [Dilazep dihydrochloride]	97
O=C1c2c(O)cccc2Cc2cccc(O)c21 [Anthralin]	110
CCN(CC)CCOC(=O)C1(C2CCCCC2)CCCCC1 [Dicyclomine hydrochloride]	108
CC(N/C(=N\C#N)Nc1ccncc1)C(C)(C)C (centres undefined) [Pinacidil]	96
CCCCC(O)c1ccccc1 (centres undefined) [Fenipentol]	98
CC(=O)Oc1ccccc1C(=O)Nc1ncc([N+](=O)[O-])s1 [Nitazoxanide]	82
CN(C)CCCN1c2ccccc2Sc2ccc(C(F)(F)F)cc21 [Triflupromazine hydrochloride]	93
CC[C@H]1OC(=O)[C@H](C)[C@@H](O[C@H]2C[C@@](C)(OC)[C@@H](O)[C@H](C)O2)[C@H](C)[C@@H](O[C@@H]2O[C@H](C)C[C@H](N(C)C)[C@H]2O)[C@](C)(O)C[C@@H](C)C(=O)[C@H](C)[C@@H](O)[C@]1(C)O [Erythromycin]	45
O=C1c2ccccc2C(=O)C1c1ccccc1 [Phenindione]	88
Clc1ccc2c(c1)C(N1CCNCC1)=Nc1ccccc1O2 [Amoxapine]	26
O=C(O)CCc1nc(-c2ccccc2)c(-c2ccccc2)o1 [Oxaprozin]	92
c1ccc(CC2=NCCN2)cc1 [Tolazoline hydrochloride]	98
OCCN1CCN(CCCN2c3ccccc3Sc3ccc(C(F)(F)F)cc32)CC1 [Fluphenazine dihydrochloride]	108
CC(C)(Oc1ccc(CCNC(=O)c2ccc(Cl)cc2)cc1)C(=O)O [Bezafibrate]	91
CCc1ccc(CCOc2ccc(CC3SC(=O)NC3=O)cc2)nc1 (centres undefined) [Pioglitazone]	91
Cc1ccc(N(CC2=NCCN2)c2cccc(O)c2)cc1 [Phentolamine hydrochloride]	93
Cc1c(Cl)cccc1Nc1ccccc1C(=O)O [Tolfenamic acid]	101

Structure (SMILES)	planktonic growth [%]
CCCSc1ccc2[nH]c(NC(=O)OC)nc2c1 [Albendazole]	98
CO[C@H]1/C=C/O[C@@]2(C)Oc3c(C)c(O)c4c(O)c(c(/C=N/N5CCN(C)CC5)c(O)c4c3C2=O)NC(=O)/C(C)=C\C=C\[C@H](C)[C@H](O)[C@@H](C)[C@@H](O)[C@@H](C)[C@H](OC(C)=O)[C@@H]1C [Rifampicin]	28
CC(=O)[C@@]12O[C@](C)(c3ccccc3)O[C@@H]1C[C@H]1[C@@H]3CCC4=CC(=O)CC[C@]4(C)[C@H]3CC[C@@]12C [Algestone acetophenide]	104
C[C@]12CCC(=O)C=C1CC[C@@H]1[C@@H]2C(=O)C[C@@]2(C)[C@H]1CC[C@]2(O)C(=O)CO [Cortisone]	97
COC(=O)[C@H](c1ccccc1Cl)N1CCc2sccc2C1 [Clopidogrel]	106
COCCCC/C(=N\OCCN)c1ccc(C(F)(F)F)cc1 [Fluvoxamine maleate]	92
CN(C)[C@@H]1C(O)=C(C(N)=O)C(=O)[C@@]2(O)C(O)=C3C(=O)c4c(O)cccc4[C@@](C)(O)[C@H]3C[C@@H]12 [Tetracycline hydrochloride]	21
C[C@H](N[C@@H](CCc1ccccc1)C(=O)O)C(=O)N1CCC[C@H]1C(=O)O [Enalaprilat dihydrate]	107
COc1ccc(CC(C)NCC(O)c2ccc(O)c(NC=O)c2)cc1 (centres undefined) [Formoterol fumarate]	101
CCOC(=O)N1CCC(=C2c3ccc(Cl)cc3CCc3cccnc32)CC1 [Loratadine]	107
C1N2CN3CN1CN(C2)C3 [Methenamine]	93
O=C1NCCN1c1ncc([N+](=O)[O-])s1 [Niridazole]	66
CCCCCN(C)CCC(O)(P(=O)(O)O)P(=O)(O)O [Ibandronate sodium]	99
C[C@@H](O)[C@H]1C(=O)N2C(C(=O)O)=C(SCCNC=N)C[C@H]12 [Imipenem]	18
c1ccc2c(c1)CCCC2C1=NCCN1 (centres undefined) [Tetrahydrozoline hydrochloride]	97
CC(C)(C)C(=O)OCOC(=O)[C@@H]1N2C(=O)[C@@H](/N=C/N3CCCCCC3)[C@H]2SC1(C)C [Pivmecillinam hydrochloride]	31
CNc1ncnc2c1ncn2[C@@H]1O[C@H](CO)[C@@H](O)[C@H]1O [N6-methyladenosine]	90
OCC(O)CN1CCN(c2ccccc2)CC1 (racemic) [Dropropizine (R,S)]	100
CS(=O)(=O)c1ccc([C@@H](O)[C@@H](CF)NC(=O)C(Cl)Cl)cc1 [Florfenicol]	38
CCN(CC)CCCC(C)Nc1ccnc2cc(Cl)ccc12 (centres undefined) [Chloroquine diphosphate]	93
Nc1ccc(S(=O)(=O)NC(=O)c2ccccc2)cc1 [Sulfabenzamide]	79
C=C(CC)C(=O)c1ccc(OCC(=O)O)c(Cl)c1Cl [Ethacrynic acid]	90
CCCc1ncc(C[n+]2ccccc2C)c(N)n1 [Amprolium hydrochloride]	110
CC(C(=O)O)c1cccc(Oc2ccccc2)c1 (centres undefined) [Fenoprofen calcium salt dihydrate]	99

— the supplement of paper PMC7580552
